Screen size: about 340,000 compounds; about 6,900 (2%) were called active. No stated cut-off is given here; in the data, active means inhibition above about 30%; inactive means below that, where a call was filed. This is a selection; strong and weak results do not stand in their true shares. Where no call is shown, the source filed none.

The target in the experiment is D(2) dopamine receptor (Homo sapiens) (UniProt P14416). The experiment can be described thus: HTS Assay for Allosteric Antagonists of the Human D2 Dopamine Receptor: Primary Screen for Antagonists. Further: 0% is about no effect. The settings on record: HEK293 TREx D2 cells, calcium flux, dopamine EC80; at 10 µM; stronger effect = higher value. The essentials: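 Calcium mobilization kinetics were recorded at 1 s intervals in tetracycline-induced HEK293 T-REx D2 cells, first for 180 s after compound addition and then 180 s after EC80 dopamine.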
UniProt P14416, sequence (P14416 whole entry, looked up): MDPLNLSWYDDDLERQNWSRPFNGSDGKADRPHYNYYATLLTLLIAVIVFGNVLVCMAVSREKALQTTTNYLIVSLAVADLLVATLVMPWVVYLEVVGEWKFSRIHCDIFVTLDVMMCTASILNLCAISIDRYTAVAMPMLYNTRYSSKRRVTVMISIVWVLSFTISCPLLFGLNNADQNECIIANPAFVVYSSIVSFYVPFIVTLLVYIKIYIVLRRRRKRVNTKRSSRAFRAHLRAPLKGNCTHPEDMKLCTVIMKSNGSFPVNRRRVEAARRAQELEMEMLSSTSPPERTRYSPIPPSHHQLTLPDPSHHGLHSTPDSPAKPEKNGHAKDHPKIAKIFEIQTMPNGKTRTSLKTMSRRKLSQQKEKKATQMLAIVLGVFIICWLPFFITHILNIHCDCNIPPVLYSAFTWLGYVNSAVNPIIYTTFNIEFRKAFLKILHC
A general note: Calcium assays in cells follow changes in intracellular calcium, usually with a dye or a luminescent sensor.
One may read the inhibition as the change of the read-out against control, counted positive when it falls. With `CCN(CC)S(=O)(=O)c1ccc2[nH]cc(C(=O)NCCc3ccccc3)c(=O)c2c1`, the inhibition was -1.37%.
With `COc1ccccc1NC(=O)CN1C(=O)CSc2ccc(S(=O)(=O)N3CCCC3)cc21` the figure was -1.82%; with `CSCCC(NS(=O)(=O)c1ccc2c(c1)oc(=O)n2C)C(=O)N1CCN(c2ccc(C(C)=O)cc2)CC1` (configuration not stated), -10.1%.
The figure for `CCc1ccc(-n2c(=O)c3cccnc3n2CC(=O)Nc2cc(OC)ccc2OC)cc1` is -1.4%; for `CCc1ccccc1NC(=O)c1ccc(=O)n(Cc2ccc(F)cc2)c1` it is -3.98%.
The figure for `COc1cc(OC)cc(C(=O)Nc2nnc3n2CCS3)c1` is 9.18%; for `Cc1ccc(C(=O)Nc2nc(-c3nnn(-c4cccc(C(F)(F)F)c4)c3C)ns2)cc1` it is 4.69%; for `CCOC(=O)c1c(C)oc2nc(C)nc(NCc3cccc(Cl)c3)c12` it is -4.41%.
For `O=C(c1cccc(Cl)c1)n1nc(-c2cccnc2)nc1NCc1ccccc1`, the inhibition is 9.83%.
With `CCc1ccccc1NC(=O)N1CCCC(CCC(=O)N(C)CCc2ccccn2)C1` (configuration not stated) the figure was active: 32.8%; with `CCOC(=O)c1nc(Nc2ccc(C(=O)OC)cc2)c2ccccc2n1`, -9%; with `O=C(Nc1cccc(-c2nc3cccnc3s2)c1)c1cccc(Br)c1`, 10.8%.
The figure for `CCOC(=O)c1ccc(NC(=O)c2cn(-c3ccccc3)nc2-c2ccc(OC)c(OC)c2)cc1` is 4.4%; for `Cc1ccc(S(=O)(=O)c2nc(-c3cccs3)oc2SC(C)C)cc1` it is 0.304%.
The figure for `N#Cc1ccccc1NC(=O)C(=O)NCCc1csc(-c2ccc(F)cc2)n1` is 18.1%; for `COc1ccc2c(Sc3ccc(Cl)cc3)c(C(=O)N3CCC(C)CC3)[nH]c2c1` it is -13%; for `O=C(Cn1c(=O)oc2cc(S(=O)(=O)N3CCCC3)ccc21)Nc1ccc(F)cc1F` it is 9.49%.
On to `CCNC(=O)CC1C(=O)N(c2ccc(C)cc2)C(=O)N1CCC(C)C` (configuration not stated), for which the inhibition was found to be 0.0814%.
The figure for `CCOC(=O)c1noc2ncn(CC(=O)Nc3cccc(Cl)c3)c(=O)c12` is 0.465%; for `O=C(CSc1c2c(nc3cc(Cl)ccc13)CCCC2)N1CCN(c2ccccc2F)CC1` it is -11.8%; for `COc1ccccc1NC(=O)CSc1oc(-c2ccccc2)nc1S(=O)(=O)c1ccc(C)cc1` it is 10.7%.
The figure for `CCc1cc2cccc(C)c2nc1SCC(=O)c1ccc(NC(C)=O)cc1` is active: 46.6%.
On to `Cc1ccc2nc(-c3cccnc3)c(Nc3ccc(C(C)C)cc3)n2c1`, for which the inhibition is 3.48%.
With `O=C(NCCc1ccc(Cl)cc1)C1COc2ccccc2C1` (configuration not stated) the figure was -17.9%.
With `O=C(c1ccc(F)cc1)n1nc(-c2cccnc2)nc1NCc1ccc(F)cc1` the figure was -3.45%; with `Cc1cn2c(=O)c(S(=O)(=O)N3CCN(c4cc(Cl)ccc4C)CC3)c(C)nc2s1`, 2.82%; with `COc1ccc(-c2cc(OC(=O)c3cccc(Cl)c3)c3c(C)oc(C)c3c(=O)c2)cc1`, -4.04%.
With `COc1cc(NC(=O)N2CCC3(CC2)Nc2ccccc2-n2cccc23)cc(OC)c1OC` the figure was -4.04%; with `CCOc1ccc(NC(=O)Cn2nnc(C(=O)NCCc3ccccc3)c2N)cc1`, 11.6%; with `COc1ccc(-c2noc(-c3ccc(NCC4CCCO4)c([N+](=O)[O-])c3)n2)cc1` (configuration not stated), 6.41%.
For the compound `CCc1nn(CC(=O)Nc2c(C)cccc2C)c(=O)c2cc3sccc3n12`, the inhibition was -13.3%.
Turning to `O=C(CSc1nc2c([nH]c3ccccc32)c(=O)n1-c1ccccc1)Nc1ccc(Cl)c(Cl)c1`, the inhibition is 15.3%.
With `CCOC(=O)/C(=C/C=C1\Sc2cc(OCC)c(OCC)cc2N1CC)C(C)=O` the figure was active: 72.2%.
The figure for `Sc1nnc(-c2ccc(Cl)cc2)n1Cc1ccccc1` is active: 39%; for `CC(C)(C)N(NC(=O)c1ccccc1)C(=O)c1ccc(C(=O)N(NC(=O)c2ccccc2)C(C)(C)C)cc1` it is active: 33%.
With `CCOc1ccccc1NC(=O)CSc1ncc(S(=O)(=O)c2ccc(C)c(C)c2)c(N)n1`, the inhibition came out at 6.92%.
With `COc1ccc(NC(=S)NNS(=O)(=O)c2ccc3ccccc3c2)c(OC)c1` the figure was active: 43.5%; with `COc1ccc(CCNC(=O)Cn2cc(S(=O)(=O)Cc3ccccc3Cl)c3ccccc32)cc1OC`, -3.08%.
Turning to `CCSc1nnc2c(n1)OC(c1ccc(C)s1)Nc1ccccc1-2` (configuration not stated), the inhibition was -2.95%.
With `O=C(CSc1nnc(-c2ccccc2F)o1)Nc1ccccc1Cl` the figure was 2.91%.
As to `O=C(O)c1ccccc1SCc1nc2ccccn2c1Br`, the inhibition was active: 51.1%.
With `CCOc1ccc(NC(=O)N(Cc2c[nH]c3ccccc23)C2CCCCCC2)cc1` the figure was 16.8%; with `COc1ccc(C2C(C(=O)Nc3ccccc3OC)=C(C)Nc3c(C(=O)Nc4ccccc4)cnn32)c(OC)c1` (configuration not stated), 9.72%; with `Cc1ccc(NC(=O)c2c(C)oc3ccc(O)c(CN4CCOCC4)c23)c(C)c1`, 3.89%.
For the compound `CC(C)CCNC(=O)CCn1c(=O)c2cccn2c2cccnc21`, the inhibition came to 10.7%.
Turning to `COc1cn(CC(=O)Nc2ccccc2)c(CN2CCCCC2)cc1=O`, the inhibition was found to be 21.2%.
The figure for `CCCn1c(=O)c2c(nc3n2CCN3c2ccc(C)cc2)n(C)c1=O` is -9.08%.
As to `CC[C@@H](C)[C@@H](C(=O)Nc1ccc(C)cc1)N1Cc2ccccc2C1=O`, the inhibition stood at 19.6%.
For `CCN1CCCC1CNC(=O)c1csc2c1CCCC2` (configuration not stated), the inhibition was active: 86.5%.
The figure for `CCOC(=O)c1c(NC(=O)c2cc(CC(C)C)on2)sc(C(C)=O)c1C` is -11.6%.
The figure for `Cc1ccc(CN(C(=O)COc2ccc(Cl)cc2C)C2CCS(=O)(=O)C2)o1` (configuration not stated) is 1.28%; for `Cc1ccc(NC(=O)c2cc3c(=O)n(Cc4ccco4)ccc3nc2C)cc1C` it is 3.59%; for `COC(=O)c1cc(C(=O)OC)cc(-n2c(C)cc(C(=O)COC(=O)CNS(=O)(=O)c3ccc(C)cc3)c2C)c1` it is active: 59.5%.
As for `Cn1c(=O)oc2cc(S(=O)(=O)NCCC(=O)NCCc3ccc(Cl)cc3)ccc21`, the inhibition was active: 59.1%.
The figure for `Cc1nc2sc(C(=O)N(C)c3ccccc3)c(NC(=O)c3ccccc3Cl)c2c(C)c1C` is 2.14%; for `CCN(CC)Cc1c(NC(=O)c2ccc(OC)cc2)sc2c1CCCC2` it is 3.92%.
For the compound `CC(=O)Nc1ccc(Nc2nc3c(S(=O)(=O)c4cccc(Cl)c4)nnn3c3ccsc23)cc1`, the inhibition was found to be 2.06%.
With `COc1ccc(CCNC(=O)Cn2c(=O)c3cccn3c3ccc(F)cc32)c(OC)c1` the figure was -6.83%; with `O=C(COc1ccccc1F)OCc1cc(=O)n2nc(C3CC3)sc2n1`, 3.17%; with `Cc1oc2ncn(CC(C)C)c(=O)c2c1C(=O)NCCCN1CCC(C)CC1`, -7.18%.
With `COc1ccc(CCNC(=O)c2cnc3sc(N4CCCCC4)nn3c2=O)cc1OC` the figure was 4.43%.
The figure for `Cc1ccc(NC(=O)CN2C(=O)CCc3cc(S(=O)(=O)N4CCCCC4)ccc32)cc1C` is -2.16%.
With `COc1cccc(C(=O)Nc2ccc(-n3nncc3-c3ccccc3)cc2)c1`, the inhibition is -12.2%.
The figure for `Cc1cc(C)cc(-n2c(C)nc3cc(C(=O)NCc4ccccc4Cl)ccc32)c1` is -8.88%; for `O=C1CCCc2cc(S(=O)(=O)NCC3CCC(C(=O)NCc4ccccc4Cl)CC3)ccc2N1` (configuration not stated) it is -7.71%; for `Cc1cccc(NC(=O)Nc2ccc(Br)cc2)n1` it is 2.74%.
With `Fc1ccc(N2CCN(c3ncnc4c3nc3n4CCCCC3)CC2)cc1` the figure was 5.65%; with `COc1ccc(CCNC(=O)c2cc3c(s2)-c2ccccc2OC3)cc1OC`, 9.39%; with `COc1ccc(S(=O)(=O)c2c(O)c3ccc(C(=O)NCc4ccccc4)cc3[nH]c2=O)cc1`, -1.82%.
The figure for `CCOC(=O)c1cnc2c(ccc3ccccc32)c1Nc1ccc(OCC)cc1` is -7.11%; for `CCOCCCn1c(=N)c(C(=O)NCc2cccnc2)cc2c(=O)n3cc(C)ccc3nc21` it is 22.8%.
Consider `CCOc1ccc(Nc2cc(C)nc3nc(Cc4ccc(Cl)cc4)nn23)cc1`, for which the inhibition was -0.938%.
As to `Cc1ccc(-n2nc3c(N4CCC(C(=O)NC(C)c5ccccc5)CC4)nnc(C)c3c2C)cc1` (configuration not stated), the inhibition is 4.31%.
As to `COc1ccccc1N1CCN(C(=O)c2c(C)oc3ncn(CC(C)C)c(=O)c23)CC1`, the inhibition is 2.29%.
With `O=C(Cn1ccc2ccccc2c1=O)NCCC(=O)Nc1ccc(F)cc1F` the figure was 8.93%.
The figure for `CCc1cccc(C)c1NC(=O)C1CCN(c2nn3c(=O)cc(C)nc3s2)CC1` is 0.43%.
As for `COc1ccc(-c2cc(C(F)(F)F)nc(SCC(=O)N3CCCCC3C)n2)cc1OC` (configuration not stated), the inhibition amounted to 0.659%.
Take `COc1ccccc1N1CCN(CC(O)COCc2cccs2)CC1` (configuration not stated): the inhibition was active: 80.7%.
With `Cc1ccc2oc(=O)c3cc(C(=O)Nc4ccccc4C(N)=O)sc3c2c1` the figure was -1.55%.
The figure for `Cc1onc(-c2c(F)cccc2Cl)c1C(=O)Nc1ccc(OC(C)C)cc1` is -7.73%; for `CCOC(=O)C1CCCN(C(=O)Cn2ncc3c(C)n(Cc4ccccc4F)c(C)c3c2=O)C1` (configuration not stated) it is 3.73%.
The figure for `COc1cc(C2C(=O)N(C3CCCCC3)CC(=O)N2CCC2=CCCCC2)ccc1OC(C)C` (configuration not stated) is 4.38%; for `Cc1cc(C)cc(NC2=C(c3ccccc3)C(=O)c3ccccc32)c1` it is -0.667%; for `COC(=O)CNC(c1ccccc1)c1cc(Br)ccc1NC(=O)c1ccccc1` (configuration not stated) it is 24.7%.
Consider `COc1cccc(-n2cc(C(=O)Nc3cc(OC)c(OC)c(OC)c3)c3ccccc3c2=O)c1`, for which the inhibition is -3.98%.
`CCOC(=O)c1cccc(NC(=O)c2cc(S(=O)(=O)N3CCCC(C)C3)cn2C)c1` (configuration not stated): the inhibition was -3.88%.
For `CC1=C(C(N)=O)C(c2ccc(C)cc2)n2nc(SCc3ccccc3F)nc2N1` (configuration not stated), the inhibition is -0.404%.
With `CC(C)OCCCNc1ncnc2c1nc1n2CCCC1` the figure was active: 32.5%; with `CC(=O)Nc1ccccc1-c1nc2ccccc2n(CC(=O)c2ccc(Br)cc2)c1=O`, -15.2%; with `O=[N+]([O-])c1ccccc1Nc1ccc(O)cc1`, active: 48.5%.
With `Cc1ccc(S(=O)(=O)NCCSc2ncccn2)cc1` the figure was active: 86.4%; with `CCCCOc1ccc(CNC(=O)c2ccc(-c3nc(CN4CCc5ccccc54)c(C)o3)cc2)cc1`, 16.6%; with `Cc1ccc(C(CC(=O)O)NC(=O)CN2C(=O)c3ccccc3C2=O)cc1` (configuration not stated), active: 42.8%.
With `CCc1ccc2oc(-c3cccc(NC(=O)c4cc5ccccc5o4)c3)nc2c1` the figure was -9.02%.
As for `Cc1nc2c(C(=O)O)cnn2c(C)c1Cc1ccccc1`, the inhibition came out at 7.72%.
With `CCCc1nn2c(=O)cc(COC(=O)c3ccc(NC(=O)CCc4ccccc4)cc3)nc2s1` the figure was 2.38%; with `Cc1ccccc1C(=O)Nc1nc2nc(C)c(C)c(=O)n2[nH]1`, -4.51%.

Values taken from PubChem BioAssay AID485344 (National Center for Advancing Translational Sciences (NCATS), 2010).
